Experimental data as given in PubChem BioAssay (NCI).
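A five-concentration, 48-hour dose response in 96-well plates underlies each endpoint, interpolated linearly between surrounding concentrations. TGI: total growth inhibition.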 The source holds more than one record for some entries. This list holds those alone. An entry can have further records. The records of an entry are repeated measurements in other runs, samples, wells, individuals or studies. Marks in square brackets tell the records apart. Letters hold for one entry only.

System: MDA-MB-468 breast
Test: DTP human tumour cell line panel, 48 h

CCN(CC)CCCC(C)Nc1cnc(C(=O)Nc2cc(F)cc3cccnc23)cn1 (stereo unspecified)
TGI: 13.6 µM [sample A, 1 test] and 1.34 µM [sample B, mean of 2 tests]
